Assay results published in the RNAGym collection of RNA variant scans (doi:10.7554/elife.90254).
The source gives no read counts; variants with many changes may rest on few reads.

B1: LINE1-mini (parent)
chain: GGCAGAGCUCAACACAGCGUGGCAAAGUGGCUGUGGCUAGACUGCC

Variants of: B1
Assay: self-cleavage, relative activity (ratio to wild type); higher = more cleavage; in vitro, sequencing; the parent is a self-cleaving ribozyme

Variant | self-cleavage
G7U C8G C15U A25U G27U G40U C42G | 0.04
G7C C18A C37G | 0.03
G7C G17A U28G G33A | 0.03
G7U A11C G22C G27C | 0.02
G7U A12U G19A U38G | 0
G7C C23A G30U C46U | 0.08
G7C U20A C42A | 0
G7U C8U C45A | 0.22
G7U C8U C45G | 0.07
G7C G36C C37A G44A | 0.18
G7C G21U A39U | 0.07
G7C C23G A41U | 0.1
G7C U9A C10A C13G G22A U28C | 0.02
G7C G30U C37G A39C | 0.02
G7C C15U A24G G29A G44A | 0.08
G7C G27A C45G | 0.23
G7C G21C G27A G30U G40A G44U | 0.02
G7C C23U G40C A41U G44A | 0.07
G7U C8A A12U C13G A14C G19C G29C U38A | 0.24
G7C U9A A14G | 0.05
G7U A12G C46G | 0.02
G7C G17C C37U | 0.04
G7C C18A G27C G30C | 0.04
G7C C15A C18A C23G | 0.04

Variant | self-cleavage
G7C G17U A26C | 0.39
G7C G30A C31A | 0.44
G7U A14U C15A G30A | 0
G7C C15U U28G C37G | 0.02
G7U A12G G19U G21A G27U U34C G44U | 0.03
G7C C15G C23U A26U G30C | 0.04
G7C C15U A26G U34G | 0.01
G7U A12C G35U G40C | 0.01
G7C C10G G40C G44C | 0.01
G7U C8G C13A G19U G44A | 0.09
G7U A26C G44A C46U | 0.06
G7C G22U G27A C42A | 0.13
G7U C8A C10G G27C | 0.04
G7U A41C U43G | 0.14
G7U C8G G17C A25G | 0.09
G7C G19A U20C U32A | 0.01
G7U A11G G27U G29A | 0.02
G7U A25U G33C | 0.08
G7U C8G C10G C23G G35A | 0.03
G7U A11G A14U | 0.03
G7U A11C C42U | 0.03
G7C C18G G29A G40U | 0.1
G7U A12C A14G | 0.01
G7U A12U G36C A39G | 0.02

Variant | self-cleavage
G7C G22A U38G | 0.01
G7U A11G A14C G40C | 0.02
G7U A11U C45G | 0.01
G7U A11U C45U | 0.02
G7C G29U C37A A39U G44U | 0.09
G7U A25U A26C | 0.07
G7C C10U G21U G22C C31G G33C U34G | 0.03
G7C U32G C46U | 0.04
G7C C10U C42U | 0.06
G7U C8A G21A U34G U38G A41G U43A | 0.49
G7C C42G C46U | 0.04
G7C C18A U28A | 0.01
G7U A11U A16U G17C C18G G27U | 0
G7C C23A G27C U32G | 0.02
G7U A24C G40C | 0.1
G7U A14C G19U G30C | 0.13
G7C C10G A16G C18A A26U G30U | 0.01
G7C C23U C31A | 0.06
G7U A25U C42U | 0.11
G7U C8A G22U G36U | 0.43
G7U A11U A12U C13A C31G G40A C45A | 0
G7U A12U C31G U34G | 0
G7C G19A U28A G40C | 0.51
G7C C23G C31A C42U | 0.14

Variant | self-cleavage
G7C C23A A25U G33U U34G C37A A41C | 0.1
G7U C8A A12G G19U | 0.1
G7C C15G C23U A25U | 0.05
G7C U34C C42G | 0.06
G7U A25G A39G U43A | 0.19
G7C C13U U32G G44A | 0.1
G7C G36C C45U | 0.02
G7C C13G G21A C31U G40U C42G | 0.47
G7U C8U G29U C31U U34C G40C C42A | 0.23
G7C C15G U34A | 0.2
G7C C31G G36U C42A | 0.04
G7C U9A G27A G30U G36U | 0.02
G7C U9C C18A | 0.03
G7C C15U A24G G29C G33C C42G | 0.01
G7C C15A A41G | 0.04
G7C U32C C45U | 0.09
G7U A16U G35A | 0.01
G7C C18A C45A | 0.06
G7U A14G G19C U28A | 0.03
G7C C13U C15U G19A G35U | 0.24
G7U C10A G29A G36A U38C G44U | 0.01
G7C C13G A24U | 0.05
G7C C13G A24G | 0.26
G7U A14U C31A G33A G40A | 0.15

Variant | self-cleavage
G7C C15G G30U C31A A39C C46A | 0
G7U C8A C15G A24G | 0.13
G7U C8G C45G | 0.06
G7C U20A G27A C31A | 0.03
G7C C15U A26U G44C | 0.09
G7C C18G C45G C46U | 0.04
G7C G21C G27A G30U A39G C42A | 0.01
G7C G21A G40A C46A | 0.32
G7U A24G U28A | 0.04
G7C C18A G30C C31U | 0.08
G7C C23A A39U U43A | 0
G7C G22C G33A A41U | 0.19
G7C C10U G36A | 0.06
G7U C10A U34G U38A | 0.01
G7C C10U G33A U34A | 0.06
G7U A11C C18U G19U | 0.01
G7C G30U G36U A41C | 0.15
G7U A11C U28G U32G C42A | 0.01
G7U A24G G30U G33A G35U | 0.05
G7U A25C A26C C42G | 0.05
G7C C18A C23U G35U U38C | 0.01
G7U C8G C15A | 0.07
G7U A24G C37U C46G | 0.06
G7U A11U G44A | 0.04

Variant | self-cleavage
G7C C15A C23U | 0.05
G7U C8A A25G C42G | 0.62
G7U A16C G36A C46A | 0.05
G7U A12G C18A G29U G40U | 0.02
G7C U20C G21C U34C C45G | 0.07
G7C U9C A16U G17A G33C | 0
G7U A11U U20G | 0.02
G7C U20G C42A | 0.05
G7U A24C C42U | 0.23
G7U C8G C31U | 0.13
G7U A11U A12U | 0.01
G7C G29A G33A | 0.01
G7C C23A U38C | 0.03
G7C G19U G21C | 0
G7C G19C G29U C31U | 0.01
G7C G22A G44C | 0.13
G7U A12U C13U C46A | 0.05
G7U A16U G33A G35C | 0.14
G7C C13A G33U G35A | 0.02
G7C G21A G29A | 0.08
G7U C8U U20C A25C G40U | 0.24
G7C C15U A24U G29U G30A U32G G35A | 0.03
G7C U9C U20A G27U | 0.03
G7C C18G G19U G30A | 0.05

Variant | self-cleavage
G7U C10A A11C G22A | 0.02
G7U A12C C15U G29U C31A | 0.02
G7C C15G U38A | 0.01
G7U A16U C37U C46U | 0.04
G7C G40U C45A | 0.14
G7U A14C G17C C23A | 0.11
G7C G17A A25G C37U | 0.05
G7U C8U G21C U32A | 0.16
G7C G30U C31G | 0.12
G7C C10G A11U U28A C45A | 0.03
G7U C8U C13G | 0.77
G7C G27C C42U | 0.02
G7U A11U G21C | 0.04
G7U C8U G19C U20A A25U U28G G36A C45U | 0.29
G7C U9G U20C U34C | 0.17
G7U A14C C18U G36A | 0.36
G7C G17A U28C U38C | 0.05
G7C C13G A25G | 0.11
G7C C10A U28C | 0.05
G7U A12U C15U A25G A39U G40A | 0.04
G7C G22U C37U C45A | 0.01
G7C C13U C15A G17C C31A | 0.01
G7C G33U G40A | 0.03
